Measured values published in the supplement of paper PMC3334620.
The full ranking holds about 33,000 sequences; the median of “E-score (-0.5 to 0.5)” is about -0.016, and the highest 2% start at about 0.32. This is one part of the list.

Biological target: T1, Stp1 (UniProt B3LFK1)
T1 sequence: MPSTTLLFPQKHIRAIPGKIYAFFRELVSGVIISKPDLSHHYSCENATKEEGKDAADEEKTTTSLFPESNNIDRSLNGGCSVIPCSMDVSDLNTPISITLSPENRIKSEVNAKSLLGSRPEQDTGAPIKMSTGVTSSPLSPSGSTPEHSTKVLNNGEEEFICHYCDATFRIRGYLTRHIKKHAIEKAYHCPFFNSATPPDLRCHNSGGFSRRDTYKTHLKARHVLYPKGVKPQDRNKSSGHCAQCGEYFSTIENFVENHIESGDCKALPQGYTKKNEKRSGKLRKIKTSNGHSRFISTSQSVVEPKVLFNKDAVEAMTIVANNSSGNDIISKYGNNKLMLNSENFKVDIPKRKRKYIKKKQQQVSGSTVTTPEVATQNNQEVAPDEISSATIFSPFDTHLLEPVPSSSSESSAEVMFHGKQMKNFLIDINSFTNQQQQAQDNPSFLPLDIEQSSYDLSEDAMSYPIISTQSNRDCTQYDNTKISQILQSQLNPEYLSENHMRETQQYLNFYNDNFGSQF
Test: PBM E-score (8-mer binding enrichment) (E-score (-0.5 to 0.5)); higher = stronger / more preferred TF binding; most listed sequences are background and not binding sites
Settings: protein concentration: 200 nM; construct: GST-full length
Summary of the method: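 The E-score, a modified Wilcoxon-Mann-Whitney statistic, was computed by the Universal PBM Analysis Suite for every ungapped eight-base word pooled with its reverse complement. Scans behind it were normalised with masliner after bound GST-tagged yeast transcription factors were detected with fluorescent anti-GST. The proteins, at about 100-200 nM, had been applied to universal all-10-mer Agilent arrays made double-stranded by primer extension.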

Sequence	PBM E-score
CCTAGCCC	-0.374
AAAGATGT	0.01
CGTTGATC	0.0467
AAACTACT	0.104
GACCGGTA	-0.386
AGGTTCAC	-0.0415
CGCGTGAG	0.26
AGCGAGCT	-0.0441
GAGTTCGC	-0.00842
CAATCTAA	-0.0297
AGTGTATA	-0.108
GCTAGTAA	0.0343
ACTCCAGG	-0.175
TTCGAGAA	-0.0268
ACCCACGC	-0.111
CACCTTGA	-0.107
CCACGTGG	-0.0863
AGACGCAC	-0.116
AGATCCTA	0.0297
CCTCGCCA	-0.171
GGCGGCTA	0.207
GTGGTCGA	-0.309
AACACGGG	0.116
GGGTCATA	-0.281
ACAAATCC	-0.00662

Sequence	PBM E-score
CCGTAAGC	-0.0535
AAGCAAGT	-0.0154
CATCTACA	0.00704
ATCCAAGC	-0.164
ATAGACTA	-0.0535
CCCACTAC	-0.0864
AAGACTAC	-0.246
GCATCAAA	0.222
GACTGGCC	-0.288
CCACGTGC	0.215
ACTCATGC	-0.00784
ACTCTTAA	-0.0998
ACACTCAC	0.0186
AACCTGCG	-0.0358
TAACGGCA	0.31
CCGAGTCG	-0.245
AAGTGGTG	-0.155
CAGCCAAA	0.17
CGCTTTCC	-0.108
ATTAGCGG	0.0139
AAATTGAG	0.00466
CGTTTAGC	0.112
GAGTACAC	0.00808
CTAGGTTA	0.00212
ACAGGTCT	-0.29

Sequence	PBM E-score
CATAAACA	0.186
GTGGAAAC	0.0392
CATCGGAA	0.0078
AGCTAATA	0.103
AATGCACA	0.182
AACCCTTG	-0.171
ATCAGGCG	-0.0222
ATAACCGC	0.112
ATGCCGCG	0.475
CTTTAGTC	-0.0205
GAGGTAGA	-0.255
CCTCATCG	-0.077
CGAATGCC	0.271
CTGTCAGC	-0.024
CGCAACCC	-0.1
ACTACTGG	-0.202
ATCGAGGG	-0.0625
GACTGGAC	-0.329
GCCAGTAC	-0.156
CTAGGGGC	-0.298
CTTAAACA	0.0992
CTAGACTA	-0.133
CCTGGCCA	-0.332
GCTAGAAC	-0.13
ATCGTCGA	-0.0508

Sequence	PBM E-score
AGGTCAAC	-0.197
GGGTGCAC	-0.181
CCAGATCA	0.102
CCTGGAAC	-0.248
ATAATACC	0.0966
GTCTCTCA	-0.00698
GATGCGGA	0.104
CGTCCGCC	0.0563
AAATGTTA	-0.0138
CAAATTAG	0.0851
GGTAATGA	-0.0239
GGCTGTAC	-0.0299
ATCGACCC	0.0335
GGGCTGCA	-0.257
AAGGATGG	-0.00811
CGAATGCG	0.0683
TAGTCGCA	-0.118
ACTGTCCC	-0.158
AAGAGGGC	-0.0547
ACGATCCT	-0.246
AACGCTAT	-0.0579
CTGATTTC	0.0319
CAGGGCCA	-0.177
TAATAAAA	0.257
GCCAAAAC	0.00035

Sequence	PBM E-score
CACACCCG	-0.0776
CTCAGCCA	-0.145
AACGGATT	0.24
CAGGATAA	-0.0944
AGGTCCAA	-0.201
CCAGGAAC	-0.333
ATGCGGGG	0.0301
CTCATTTA	-0.0333
CAATATTC	-0.0936
AGACAGTC	-0.205
AACTGAAG	-0.0544
CCTCGGAG	-0.0591
AGCCAGAA	-0.0789
TCAAGGCA	-0.0413
GCAATGGC	-0.116
CAAGTGCC	0.303
ACGTTGTA	-0.0938
GGGACACC	-0.188
TACTGTGA	-0.14
CTCGGGAC	-0.125
ACGGTGCA	-0.00717
ACTGGGCG	-0.188
GCTTGAAC	0.111
CATCAGAG	-0.00661
CCGGCGGA	0.0459

Sequence	PBM E-score
AGCAATCC	-0.114
ACCGATAG	-0.222
CCGGACCG	-0.179
TACAAAGA	0.0522
ATTCTCTA	0.149
CCAGATGC	-0.172
GACGCCCC	-0.00392
ACACAAGT	0.00705
TAAGTCCA	-0.0485
CGTGTTTC	-0.0574
TCGCCGAA	0.105
GTAGATAA	0.209
ATATCAGA	0.157
TCCTCCGA	-0.286
AAGCGTAG	-0.199
AATGAGAT	0.172
ATAACCAG	-0.17
ATCGCCAG	0.0782
CCAAAGAC	0.0695
CAGCGACG	-0.0819
AGCTCCCT	-0.264
GCTCTGGA	0.178
AGCGATCC	-0.185
CAGGCATG	-0.0167
AACGATGT	0.0569

Sequence	PBM E-score
CATAGAAA	0.156
GTTACGTA	-0.164
ATGCAGGA	-0.258
GCTAGACC	-0.276
CCTGTACA	0.0305
ACGGAGGG	-0.0414
AGCATGGC	0.038
CATGTGCA	-0.252
AGTTACCA	0.018
CTTAAGTA	0.0413
CCAATTCA	0.0182
GGTAAATA	-0.0705
CCACACAG	0.0714
ATACATAA	0.102
GCCATATA	0.258
CGCAAGAC	-0.0977
AGGAGACG	-0.0946
GCGGGATA	0.0653
AGAGCACA	-0.214
TACGACCA	-0.136
ACCTATAT	0.196
AATCGCTC	-0.292
